Consider 28 molecules from PubChem BioAssay AID1963576 (National Center for Advancing Translational Sciences (NCATS), 2024).

Among all 46,000 compounds or so, about 60 (0.1%) were called active. Roughly 3% stayed inconclusive and do not appear here. Calls follow the shape of the dose curve; as a rule, active = well fitted inhibition curve with a large enough effect; inconclusive = small, poorly fitted or top-dose-only effect; inactive = no such curve, though single readings can be large or run the other way. This is one part of the list.

The nature of the test: Primary qHTS assay for Inhibitors of ovarian cancer metastasis using an organotypic tumor microenvironment (TME) model. Also: nearly all actives have a fitted effect of over 65% in size.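 As to activity change, negative = inhibition: plate controls were DMSO wells for no effect and tomatine positive control wells for full effect.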 The settings on record: SKOV3ip1-GFP adhesion/invasion on 3D omental model, fluorescence; series mostly up to 45.8 µM; activity change, negative = inhibition: at the top concentration. Summed up: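 Primary human omental fibroblast/mesothelial 3D culture pre-formed 48 h. SKOV3ip1-GFP cells added with compounds (0.36-46 umol/L), incubated 2 h RT/16 h 37 C, fixed; GFP cells quantified at 488/509 nm.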
For orientation: In qHTS, concentration-response curves come from the screen itself.
Regarding `Cc1cc(F)ccc1NC(=O)CCS(=O)(=O)c1cc2c(cc1C)NC(=O)CO2`, the “activity change, negative = inhibition” value was inactive: -21.3%. Take `COc1ccc(OC)c(CCNC(=O)CCCn2c(=O)c3cccn3c3ccc(F)cc32)c1`: the call was inactive. Take `CCOc1ccccc1CNCCCSc1nnnn1C`: the “activity change, negative = inhibition” value was inactive: -5.66%. In the case of `O=S(=O)(NCc1ccc(F)cc1)c1ccc(N2CCCCS2(=O)=O)cc1`, the “activity change, negative = inhibition” value is inactive: -5.13%. On to `COc1cccc(CNC(=O)Cn2ncc3c(=O)oc4ccccc4c32)c1`, for which the molecule was classed as inactive.

In the case of `Cc1ccc(CSc2cn(CC(=O)N3CCCCCC3)c3ccccc23)cc1`, the “activity change, negative = inhibition” value was inactive: -11.3%. Take `CCCN(Cc1cc2cccc(C)c2[nH]c1=O)C(=O)c1cccc(Cl)c1`: the “activity change, negative = inhibition” value was inactive: -1.74%. As to `COc1ccc(C2C=C(c3ccccc3)Nc3nc(NS(=O)(=O)c4ccccc4)nn32)cc1` (stereo not drawn), the “activity change, negative = inhibition” value is inactive: 2.83%.

For the molecule `CCOC(=O)c1ccccc1NC(=O)CSc1c(C)cnc2c1c(=O)n(C)c(=O)n2C`, the “activity change, negative = inhibition” value was inactive: -9.77%. `CC(CNC(=O)CCn1c(=O)c2cccn2c2ccc(F)cc21)c1ccccc1` (stereo not drawn): the “activity change, negative = inhibition” value was inactive: 5.37%. Consider `Cc1cc(C)c(S(=O)(=O)Nc2ccc3oc4c(c3c2)CCCC4)cc1C`, for which the “activity change, negative = inhibition” value was inactive: 0.623%. Take `COCCCNC(=O)c1ccc(CSc2nc3cccnc3n2Cc2ccc(OC)cc2)cc1`: the molecule was called inactive.

`Cc1ccc(C)c(Cn2c(=O)n(-c3ccc(Cl)cc3)c(=O)c3c4c(sc32)CCC4)c1`: the “activity change, negative = inhibition” value is inactive: 0.308%.

Turning to `COc1ccc(CCNC(=O)C2CC(=O)N(CCc3ccccc3)C2)cc1OC` (stereo not drawn), the call was inactive.

Turning to `COc1cccc(NC(=O)c2c(-c3ccc(C)cc3)nnc3ccccc23)c1`, the “activity change, negative = inhibition” value was inactive: 2.01%. As for `O=C(Nc1cccc(Cl)c1Cl)c1cc(S(=O)(=O)N2CCCCC2)ccc1F`, the “activity change, negative = inhibition” value was inactive: -9.87%. The same measure, in the same setting: with `COc1ccccc1N1CCN(c2nc3ccc(C(=O)c4ccccc4)cc3n3c(C)nnc23)CC1` the figure was inactive: 8.47%.

Consider `Cc1ccc(-c2onc(C)c2C)cc1S(=O)(=O)NCc1cccs1`, for which the molecule was called inactive. For `COc1ccc(OC)c(CNC(=O)C2CCN(S(=O)(=O)N3CCCCC3)CC2)c1`, the result was inactive. As for `CCc1nn(CC(=O)Nc2ccc(C)c(F)c2)c(=O)c2cc3cc(C)ccc3n12`, the “activity change, negative = inhibition” value is inactive: 41%. As to `O=C(c1ccc2c(c1)N(Cc1ccc(Cl)cc1)C(=O)c1ccccc1S2(=O)=O)N1CCCCCC1`, the result was inactive. On to `CCCN(Cc1cccs1)C(=O)Nc1cc(C)ccc1OC`, for which the “activity change, negative = inhibition” value was inactive: 3.7%. For the molecule `Cc1cccc(C)c1Nc1c(-c2ccccc2Cl)nc2cnccn12`, the call was inactive.

In the case of `CC(=O)OC1=CN(Cc2ccccc2)S(=O)(=O)c2ccccc21`, the “activity change, negative = inhibition” value was inactive: -12.6%. Take `COc1ccc(OC)c(S(=O)(=O)NCCc2sc(-c3cccnc3)nc2C)c1`: the “activity change, negative = inhibition” value is inactive: -18.8%. Take `CCCCN1CC(c2nc3ccccc3n2CCCCOc2ccccc2C)CC1=O` (stereo not drawn): the “activity change, negative = inhibition” value is inactive: -4.51%. Same read-out and setting: the result for `CCOc1ccc(-c2nnc(SCC(=O)Nc3ccccc3C(F)(F)F)o2)cc1` reads inactive: 3.61%; that for `COc1ccccc1N1CCN(C2C(=O)c3ccccc3N2C(C)=O)CC1` (stereo not drawn), inactive: 25.8%.
